Lines with a small IC50 respond at low doses; fits outside the tested doses are given as limits. For AUC the same curve is integrated over the 256-fold range of doses and scaled to a fraction; it is 1 without any effect and falls as sensitivity rises. For some assays here: The top dose, if marked as inferred, comes from the curve model; the source does not state it. For some assays here: An entry number marks a drug with two screens in the source, which often give different values.
Tests used:
Experiment in all cases: Viability of human cancer cell lines after 72 h of drug (GDSC screen)
[1] = compound: OC[C@H](Cc1ccccc1)Nc1nc(Oc2ccc3c(c2)CCC3)nc2c1ncn2Cc1ccc(-c2ccccc2)cc1 [QS11]; conditions: top dose 10.24 µM
Experimental: (§1)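 Human cancer cell lines in 384-well plates, medium with 10% serum, drug for 72 h over a 256-fold dose range (nine 2-fold or five 4-fold steps up to the top dose). Adherent lines were fixed and stained with the nucleic acid dye Syto60, suspension lines read with resazurin; signal relative to control wells, capped at 0 and 100%. One two-parameter sigmoid per drug and line, fitted in a mixed model over all curves with the slope shared within a line.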

[2] = compound: O=c1[nH]cc(F)c(=O)[nH]1 [5-Fluorouracil]; conditions: top dose 32 µM; top dose inferred
Experimental: as §1

[3] = compound: NCC(=O)Nc1ccc(-n2nc(C(F)(F)F)cc2-c2ccc3c(ccc4ccccc43)c2)cc1 [OSU-03012]; conditions: top dose 16 µM; top dose inferred
Experimental: as §1

[4] = compound: COc1cc(F)c(F)c(Nc2ccc(I)cc2F)c1NS(=O)(=O)C1(C[C@H](O)CO)CC1 [RDEA119]; conditions: top dose 5 µM, top dose inferred
Experimental: as §1

[5] = compound: CC(C)(C)c1cc(NC(=O)Nc2ccc(-c3cn4c(n3)sc3cc(OCCN5CCOCC5)ccc34)cc2)no1 [AC220]; conditions: top dose 1.024 µM; top dose inferred
Experimental: as §1

[6] = compound: Fc1cc(-c2ccnc(Nc3ccc(-n4cnc(N5CCOCC5)n4)cc3)n2)cc(N2CCOCC2)c1 [JNK-9L]; conditions: top dose 5.12 µM; top dose inferred
Experimental: as §1

[7] = compound: C#Cc1cccc(Nc2ncnc3cc(OC)c(OCCCCCCC(=O)NO)cc23)c1 [CUDC-101]; conditions: top dose 5.12 µM; top dose inferred
Experimental: as §1

NB14 (neuroblastoma, adherent)
AUC [1]: 0.949 | IC50 [1]: > 10.2 µM | AUC [2]: 0.987 | IC50 [2]: > 32 µM | AUC [3]: 0.584 | IC50 [3]: 1.67 µM | AUC ([4]; screen: GDSC drug entry 1014): 0.884 | IC50 ([4]; screen: GDSC drug entry 1014): 4.85 µM | AUC ([4]; screen: GDSC drug entry 1526): 0.942 | IC50 ([4]; screen: GDSC drug entry 1526): > 5 µM | AUC [5]: 0.989 | IC50 [5]: > 1.02 µM | AUC [6]: 0.537 | IC50 [6]: 0.401 µM

CTB-1 (B-cell lymphoma, suspension)
AUC [1]: 0.855 | IC50 [1]: > 10.2 µM | AUC [2]: 0.697 | IC50 [2]: 8.87 µM | AUC [3]: 0.741 | IC50 [3]: 6.42 µM | AUC ([4]; screen: GDSC drug entry 1014): 0.978 | IC50 ([4]; screen: GDSC drug entry 1014): > 5 µM | AUC ([4]; screen: GDSC drug entry 1526): 0.975 | IC50 ([4]; screen: GDSC drug entry 1526): > 5 µM | AUC [5]: 0.968 | IC50 [5]: > 1.02 µM | AUC [6]: 0.617 | IC50 [6]: 0.757 µM

KP-4 (pancreas, adherent)
AUC [1]: 0.894 | IC50 [1]: > 10.2 µM | AUC [2]: 0.85 | IC50 [2]: 22.7 µM | AUC [3]: 0.745 | IC50 [3]: 4.87 µM | AUC ([4]; screen: GDSC drug entry 1526): 0.892 | IC50 ([4]; screen: GDSC drug entry 1526): > 5 µM | AUC [5]: 0.988 | IC50 [5]: > 1.02 µM | AUC [6]: 0.521 | IC50 [6]: 0.364 µM

IST-MES1 (mesothelioma, adherent)
AUC [1]: 0.976 | IC50 [1]: > 10.2 µM | AUC [2]: 0.901 | IC50 [2]: > 32 µM | AUC [7]: 0.714 | IC50 [7]: 1.3 µM | AUC [3]: 0.864 | IC50 [3]: 14.1 µM | AUC [5]: 0.974 | IC50 [5]: > 1.02 µM | AUC [6]: 0.749 | IC50 [6]: 1.67 µM

SNU-475 (liver, adherent)
AUC [1]: 0.988 | IC50 [1]: > 10.2 µM | AUC [2]: 0.869 | IC50 [2]: 24 µM | AUC [7]: 0.529 | IC50 [7]: 0.38 µM | AUC [3]: 0.882 | IC50 [3]: 13.6 µM | AUC [5]: 0.974 | IC50 [5]: > 1.02 µM | AUC [6]: 0.777 | IC50 [6]: 1.81 µM

NCI-H2196 (small cell lung carcinoma, adherent)
AUC [1]: 0.98 | IC50 [1]: > 10.2 µM | AUC [2]: 0.914 | IC50 [2]: > 32 µM | AUC [7]: 0.418 | IC50 [7]: 0.189 µM | AUC [3]: 0.869 | IC50 [3]: > 16 µM | AUC [5]: 0.916 | IC50 [5]: > 1.02 µM | AUC [6]: 0.662 | IC50 [6]: 0.927 µM

NCI-H2171 (small cell lung carcinoma, suspension)
AUC [1]: 0.957 | IC50 [1]: > 10.2 µM | AUC [2]: 0.968 | IC50 [2]: > 32 µM | AUC [7]: 0.399 | IC50 [7]: 0.176 µM | AUC [3]: 0.863 | IC50 [3]: 11 µM | AUC [5]: 0.992 | IC50 [5]: > 1.02 µM | AUC [6]: 0.694 | IC50 [6]: 1.03 µM

VMRC-MELG (melanoma, adherent)
AUC [1]: 0.988 | IC50 [1]: > 10.2 µM | AUC [2]: 0.948 | IC50 [2]: > 32 µM | AUC [7]: 0.64 | IC50 [7]: 0.798 µM | AUC [3]: 0.779 | IC50 [3]: 6.86 µM | AUC [5]: 0.989 | IC50 [5]: > 1.02 µM | AUC [6]: 0.604 | IC50 [6]: 0.628 µM

NCI-H69 (small cell lung carcinoma, suspension)
AUC [1]: 0.941 | IC50 [1]: > 10.2 µM | AUC [2]: 0.986 | IC50 [2]: > 32 µM | AUC [3]: 0.935 | IC50 [3]: > 16 µM | AUC ([4]; screen: GDSC drug entry 1014): 0.986 | IC50 ([4]; screen: GDSC drug entry 1014): > 5 µM | AUC ([4]; screen: GDSC drug entry 1526): 0.982 | IC50 ([4]; screen: GDSC drug entry 1526): > 5 µM | AUC [5]: 0.912 | IC50 [5]: > 1.02 µM | AUC [6]: 0.714 | IC50 [6]: 1.39 µM

IM-95 (stomach, adherent)
AUC [1]: 0.878 | IC50 [1]: > 10.2 µM | AUC [2]: 0.81 | IC50 [2]: 18.2 µM | AUC [7]: 0.544 | IC50 [7]: 0.426 µM | AUC [3]: 0.666 | IC50 [3]: 3 µM | AUC [5]: 0.968 | IC50 [5]: > 1.02 µM | AUC [6]: 0.478 | IC50 [6]: 0.277 µM

BICR31 (head and neck, adherent)
AUC [1]: 0.979 | IC50 [1]: > 10.2 µM | AUC [2]: 0.967 | IC50 [2]: > 32 µM | AUC [7]: 0.465 | IC50 [7]: 0.256 µM | AUC [3]: 0.758 | IC50 [3]: 5.6 µM | AUC [5]: 0.985 | IC50 [5]: > 1.02 µM | AUC [6]: 0.619 | IC50 [6]: 0.681 µM

SUP-B15 (lymphoblastic leukaemia, suspension)
AUC [1]: 0.811 | IC50 [1]: 5.17 µM | AUC [2]: 0.47 | IC50 [2]: 1.66 µM | AUC [7]: 0.329 | IC50 [7]: 0.109 µM | AUC [3]: 0.72 | IC50 [3]: 4.06 µM | AUC ([4]; screen: GDSC drug entry 1014): 0.777 | IC50 ([4]; screen: GDSC drug entry 1014): 1.92 µM | AUC [6]: 0.559 | IC50 [6]: 0.462 µM

HCC1599 (breast, suspension)
AUC [1]: 0.922 | IC50 [1]: > 10.2 µM | AUC [2]: 0.834 | IC50 [2]: 25.3 µM | AUC [7]: 0.375 | IC50 [7]: 0.138 µM | AUC [3]: 0.765 | IC50 [3]: 6.68 µM | AUC [5]: 0.966 | IC50 [5]: > 1.02 µM | AUC [6]: 0.53 | IC50 [6]: 0.391 µM

KMS-12-BM (myeloma, suspension)
AUC [1]: 0.917 | IC50 [1]: > 10.2 µM | AUC [2]: 0.855 | IC50 [2]: 18.9 µM | AUC [7]: 0.266 | IC50 [7]: 0.0799 µM | AUC [3]: 0.741 | IC50 [3]: 4.21 µM | AUC [5]: 0.981 | IC50 [5]: > 1.02 µM | AUC [6]: 0.604 | IC50 [6]: 0.585 µM

DOK (head and neck, adherent)
AUC [1]: 0.976 | IC50 [1]: > 10.2 µM | AUC [2]: 0.973 | IC50 [2]: > 32 µM | AUC [3]: 0.921 | IC50 [3]: > 16 µM | AUC ([4]; screen: GDSC drug entry 1014): 0.397 | IC50 ([4]; screen: GDSC drug entry 1014): 0.142 µM | AUC [5]: 0.976 | IC50 [5]: > 1.02 µM | AUC [6]: 0.609 | IC50 [6]: 0.739 µM

NB6 (neuroblastoma, adherent)
AUC [1]: 0.847 | IC50 [1]: > 10.2 µM | AUC [2]: 0.863 | IC50 [2]: > 32 µM | AUC [3]: 0.674 | IC50 [3]: 3.43 µM | AUC ([4]; screen: GDSC drug entry 1014): 0.983 | IC50 ([4]; screen: GDSC drug entry 1014): > 5 µM | AUC ([4]; screen: GDSC drug entry 1526): 0.91 | IC50 ([4]; screen: GDSC drug entry 1526): > 5 µM | AUC [5]: 0.98 | IC50 [5]: > 1.02 µM | AUC [6]: 0.662 | IC50 [6]: 1.01 µM

PF-382 (T-cell lymphoblastic leukaemia, suspension)
AUC [1]: 0.911 | IC50 [1]: > 10.2 µM | AUC [2]: 0.803 | IC50 [2]: 13.6 µM | AUC [7]: 0.265 | IC50 [7]: 0.0759 µM | AUC [3]: 0.622 | IC50 [3]: 2.07 µM | AUC ([4]; screen: GDSC drug entry 1014): 0.988 | IC50 ([4]; screen: GDSC drug entry 1014): > 5 µM | AUC ([4]; screen: GDSC drug entry 1526): 0.99 | IC50 ([4]; screen: GDSC drug entry 1526): > 5 µM | AUC [6]: 0.563 | IC50 [6]: 0.464 µM

GAK (melanoma, adherent)
AUC [1]: 0.935 | IC50 [1]: > 10.2 µM | AUC [2]: 0.946 | IC50 [2]: > 32 µM | AUC [7]: 0.716 | IC50 [7]: 1.26 µM | AUC [3]: 0.754 | IC50 [3]: 5.14 µM | AUC ([4]; screen: GDSC drug entry 1014): 0.625 | IC50 ([4]; screen: GDSC drug entry 1014): 0.678 µM | AUC ([4]; screen: GDSC drug entry 1526): 0.613 | IC50 ([4]; screen: GDSC drug entry 1526): 0.629 µM | AUC [6]: 0.664 | IC50 [6]: 0.892 µM

REH (B-cell leukaemia, suspension)
AUC [1]: 0.898 | IC50 [1]: > 10.2 µM | AUC [2]: 0.502 | IC50 [2]: 2.02 µM | AUC [7]: 0.315 | IC50 [7]: 0.0997 µM | AUC [3]: 0.552 | IC50 [3]: 1.38 µM | AUC ([4]; screen: GDSC drug entry 1014): 0.977 | IC50 ([4]; screen: GDSC drug entry 1014): > 5 µM | AUC ([4]; screen: GDSC drug entry 1526): 0.978 | IC50 ([4]; screen: GDSC drug entry 1526): > 5 µM | AUC [6]: 0.637 | IC50 [6]: 0.754 µM

NCI-H748 (small cell lung carcinoma, suspension)
AUC [1]: 0.917 | IC50 [1]: > 10.2 µM | AUC [2]: 0.865 | IC50 [2]: > 32 µM | AUC [7]: 0.358 | IC50 [7]: 0.115 µM | AUC [3]: 0.859 | IC50 [3]: > 16 µM | AUC [5]: 0.947 | IC50 [5]: > 1.02 µM | AUC [6]: 0.684 | IC50 [6]: 1.22 µM

— the supplement of paper PMC4967469
